# Laboratory results published in the supplement of paper PMC8728848.
# The other results are listed elsewhere or left out.
# Legend:
# Experiment in all cases: glycan array binding signal (z-score within array); higher = stronger binding
# Conditions in all cases: glycan notation: IUPAC condensed, linker removed
# [1] = target: Fuc(a1-3)[Gal(b1-4)]GlcNAc(b1-3)Gal(b1-4)[Fuc(a1-3)]GlcNAc
# How it was run: (§1)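 From the Consortium for Functional Glycomics database, 3228 arrays were curated, keeping only those whose protein sequence was available. Binding is given as a within-array Z-score averaged across arrays sharing a protein sequence and across linkers. Negative Z-scores can be read as non-binding.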
# [2] = target: Fuc(a1-3)[Gal(b1-4)]GlcNAc(b1-3)Gal(b1-4)[Fuc(a1-3)]GlcNAc(b1-3)Gal(b1-4)[Fuc(a1-3)]GlcNAc
# How it was run: as §1
# [3] = target: Fuc(a1-3)[Gal(b1-4)]GlcNAc(b1-3)GalNAc
# How it was run: as §1
# [4] = target: Fuc(a1-3)[Gal(b1-4)]GlcNAc(b1-4)Gal(b1-4)[Fuc(a1-3)]GlcNAc
# How it was run: as §1
# [5] = target: Fuc(a1-3)[Gal(b1-4)]GlcNAc(b1-4)Gal(b1-4)[Fuc(a1-3)]GlcNAc(b1-4)Gal(b1-4)[Fuc(a1-3)]GlcNAc
# How it was run: as §1
# [6] = target: Fuc(a1-3)[Gal(b1-4)]GlcNAc(b1-6)GalNAc
# How it was run: as §1
# [7] = target: Fuc(a1-3)[Gal(b1-4)]GlcNAc(b1-6)[Gal(b1-3)GlcNAc(b1-3)]Gal(b1-4)Glc
# How it was run: as §1
# [8] = target: Fuc(a1-3)[Gal(b1-4)]GlcNAc(b1-6)[Neu5Ac(a2-3)Gal(b1-3)]GalNAc
# How it was run: as §1
# [9] = target: Fuc(a1-3)[Gal(b1-4)]GlcNAc6S
# How it was run: as §1
# [10] = target: Fuc(a1-3)[Gal3S(b1-4)]GlcNAc
# How it was run: as §1
# [11] = target: Fuc(a1-3)[Gal3S(b1-4)]GlcNAc6S
# How it was run: as §1
# [12] = target: Fuc(a1-3)[GalNAc(b1-4)]GlcNAc
# How it was run: as §1
# [13] = target: Fuc(a1-3)[GalNAc(b1-4)]GlcNAc6S
# How it was run: as §1
# [14] = target: Fuc(a1-3)[GalNAc3S(b1-4)]GlcNAc
# How it was run: as §1
# Fuc(a1-4)GlcNAc = target: Fuc(a1-4)GlcNAc
# How it was run: as §1
# Fuc(b1-3)GlcNAc = target: Fuc(b1-3)GlcNAc
# How it was run: as §1
# Gal(a1-2)Gal = target: Gal(a1-2)Gal
# How it was run: as §1
# Gal(a1-3)Gal = target: Gal(a1-3)Gal
# How it was run: as §1
# Gal(a1-3)Gal(b1-3)GlcNAc = target: Gal(a1-3)Gal(b1-3)GlcNAc
# How it was run: as §1
# [15] = target: Gal(a1-3)Gal(b1-3)GlcNAc(b1-2)Man(a1-3)[Gal(a1-3)Gal(b1-3)GlcNAc(b1-2)Man(a1-6)]Man(b1-4)GlcNAc(b1-4)GlcNAc
# How it was run: as §1
# [16] = target: Gal(a1-3)Gal(b1-3)GlcNAc(b1-3)GalNAc
# How it was run: as §1
# [17] = target: Gal(a1-3)Gal(b1-3)GlcNAc(b1-6)GalNAc
# How it was run: as §1
# [18] = target: Gal(a1-3)Gal(b1-3)[Fuc(a1-4)]GlcNAc(b1-2)Man(a1-3)[Gal(a1-3)Gal(b1-3)[Fuc(a1-4)]GlcNAc(b1-2)Man(a1-6)]Man(b1-4)GlcNAc(b1-4)GlcNAc
# How it was run: as §1
# Gal(a1-3)Gal(b1-4)Glc = target: Gal(a1-3)Gal(b1-4)Glc
# How it was run: as §1
# Gal(a1-3)Gal(b1-4)GlcNAc = target: Gal(a1-3)Gal(b1-4)GlcNAc
# How it was run: as §1
# [19] = target: Gal(a1-3)Gal(b1-4)GlcNAc(b1-3)GalNAc
# How it was run: as §1
# [20] = target: Gal(a1-3)Gal(b1-4)GlcNAc(b1-6)GalNAc
# How it was run: as §1
# [21] = target: Gal(a1-3)Gal(b1-4)[Fuc(a1-3)]GlcNAc
# How it was run: as §1
# [22] = target: Gal(a1-3)Gal(b1-4)[Fuc(a1-3)]GlcNAc(b1-2)Man(a1-3)[Gal(a1-3)Gal(b1-4)[Fuc(a1-3)]GlcNAc(b1-2)Man(a1-6)]Man(b1-4)GlcNAc(b1-4)GlcNAc
# How it was run: as §1
# Gal(a1-3)GalNAc = target: Gal(a1-3)GalNAc
# How it was run: as §1
binder,measurement,setting,value
"StcE (Escherichia coli), O82882.2 (protein) ADNNSAIYFNTSQPINDLQGSLAAEVKFAQSQILPAHPKEGDSQPHLTSLRKSLLLVRPVKADDKTPVQVEARDDNNKILGTLTLYPPSSLPDTIYHLDGVPEGGIDFTPHNGTKKIINTVAEVNKLSDASGSSIHSHLTNNALVEIHTANGRWVRDIYLPQGPDLEGKMVRFVSSAGYSSTVFYGDRKVTLSVGNTLLFKYVNGQWFRSGELENNRITYAQHIWSAELPAHWIVPGLNLVIKQGNLSGRLNDIKIGAPGELLLHTIDIGMLTTPRDRFDFAKDKEAHREYFQTIPVSRMIVNNYAPLHLKEVMLPTGELLTDMDPGNGGWHSGTMRQRIGKELVSHGIDNANYGLNSTAGLGENSHPYVVAQLAAHNSRGNYANGIQVHGGSGGGGIVTLDSTLGNEFSHEVGHNYGLGHYVDGFKGSVHRSAENNNSTWGWDGDKKRFIPNFYPSQTNEKSCLNNQCQEPFDGHKFGFDAMAGGSPFSAANRFTMYTPNSSAIIQRFFENKAVFDSRSSTGFSKWNADTQEMEPYEHTIDRAEQITASVNELSESKMAELMAEYAVVKVHMWNGNWTRNIYIPTASADNRGSILTINHEAGYNSYLFINGDEKVVSQGYKKSFVSDGQFWKERDVVDTREARKPEQFGVPVTTLVGYYDPEGTLSSYIYPAMYGAYGFTYSDDSQNLSDNDCQLQVDTKEGQLRFRLANHRANNTVMNKFHINVPTESQPTQATLVCNNKILDTKSLTPAPEGLTYTVNGQALPAKENEGCIVSVNSGKRYCLPVGQRSGYSLPDWIVGQEVYVDSGAKAKVLLSDWDNLSYNRIGEFVGNVNPADMKKVKAWNGQYLDFSKPRSMRVVYK",glycan array binding signal (z-score),[1],0.176
same,glycan array binding signal (z-score),[2],-0.915
same,glycan array binding signal (z-score),[3],-0.124
same,glycan array binding signal (z-score),[4],-0.114
same,glycan array binding signal (z-score),[5],0.093
same,glycan array binding signal (z-score),[6],-0.134
same,glycan array binding signal (z-score),[7],-0.173
same,glycan array binding signal (z-score),[8],0.102
same,glycan array binding signal (z-score),[9],-0.15
same,glycan array binding signal (z-score),[10],0.099
same,glycan array binding signal (z-score),[11],-0.11
same,glycan array binding signal (z-score),[12],-0.156
same,glycan array binding signal (z-score),[13],-0.031
same,glycan array binding signal (z-score),[14],-0.164
same,glycan array binding signal (z-score),Fuc(a1-4)GlcNAc,-0.146
same,glycan array binding signal (z-score),Fuc(b1-3)GlcNAc,-0.359
same,glycan array binding signal (z-score),Gal(a1-2)Gal,-0.153
same,glycan array binding signal (z-score),Gal(a1-3)Gal,-0.371
same,glycan array binding signal (z-score),Gal(a1-3)Gal(b1-3)GlcNAc,-0.11
same,glycan array binding signal (z-score),[15],-0.061
same,glycan array binding signal (z-score),[16],0.272
same,glycan array binding signal (z-score),[17],-0.144
same,glycan array binding signal (z-score),[18],4.13
same,glycan array binding signal (z-score),Gal(a1-3)Gal(b1-4)Glc,-0.25
same,glycan array binding signal (z-score),Gal(a1-3)Gal(b1-4)GlcNAc,0.091
same,glycan array binding signal (z-score),[19],-0.089
same,glycan array binding signal (z-score),[20],-0.141
same,glycan array binding signal (z-score),[21],0.116
same,glycan array binding signal (z-score),[22],-0.107
same,glycan array binding signal (z-score),Gal(a1-3)GalNAc,-0.129
